Paper PMC12820563
The list shows a part of the results. The list includes weakly bound sequences.

molecular target: T1, MBP-FoxP3dN (UniProt Q99JB6); experiment: PD-seq (MBP pull-down with sequencing); details: 20 mM Tris-HCl pH 7.5, 100 mM NaCl, 1.5 mM MgCl2, 0.4 uM protein, 0.1 uM dsDNA library, 30 min, room temperature, amylose pull-down; high values mean tight binding; double strand, one strand shown
T1 sequence: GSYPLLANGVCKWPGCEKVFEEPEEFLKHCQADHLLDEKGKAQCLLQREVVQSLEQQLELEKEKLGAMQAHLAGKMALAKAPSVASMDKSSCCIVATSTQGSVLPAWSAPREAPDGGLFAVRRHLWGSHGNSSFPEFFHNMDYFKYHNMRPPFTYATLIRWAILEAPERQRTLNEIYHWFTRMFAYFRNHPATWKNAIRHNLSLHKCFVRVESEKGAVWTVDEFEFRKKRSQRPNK

| Sequence | binding signal (RPM ratio (pull-down/input)) |
| --- | --- |
| GATGATTGTTCTCCCAGCTGATGAATTGAGGATTTCGAGTAAACAAATTTTCCTAATCTTTCTGTTCAAGCGCCATCTAC | 0.292 |
| GATGATTGTTCTCCCAGCTGATGAATTCTCAGAATCGAGTAAACAAATTTTCCTAATCTTTCTGTTCAAGCGCCATCTAC | 0.166 |
| GATGATTGTTCTCCCAGCTGATGAATTACCGGAGTCGAGTAAACAAATTTTCCTAATCTTTCTGTTCAAGCGCCATCTAC | 0.208 |
| GATGATTGTTCTCCCAGCTGATGAATTCTCGTAGTCGAGTAAACAAATTTTCCTAATCTTTCTGTTCAAGCGCCATCTAC | 0.3 |
| GATGATTGTTCTCCCAGCTGATGAATTGCCTATATCGAGTAAACAAATTTTCCTAATCTTTCTGTTCAAGCGCCATCTAC | 0.625 |
| GATGATTGTTCTCCCAGCTGATGAATTCTGTGGCTCGAGTAAACAAATTTTCCTAATCTTTCTGTTCAAGCGCCATCTAC | 1.13 |
| GATGATTGTTCTCCCAGCTGATGAATTGAGCTGATCGAGTAAACAAATTTTCCTAATCTTTCTGTTCAAGCGCCATCTAC | 0.446 |
| GATGATTGTTCTCCCAGCTGATGAATTGAGGTAGTCGAGTAAACAAATTTTCCTAATCTTTCTGTTCAAGCGCCATCTAC | 0.409 |
| GATGATTGTTCTCCCAGCTGATGAATTTGGGCGATCGAGTAAACAAATTTTCCTAATCTTTCTGTTCAAGCGCCATCTAC | 0.578 |
| GATGATTGTTCTCCCAGCTGATGAATTTATTATCTCGAGTAAACAAATTTTCCTAATCTTTCTGTTCAAGCGCCATCTAC | 5.36 |
| GATGATTGTTCTCCCAGCTGATGAATTTAGACGATCGAGTAAACAAATTTTCCTAATCTTTCTGTTCAAGCGCCATCTAC | 0.303 |
| GATGATTGTTCTCCCAGCTGATGAATTTCGCTTCTCGAGTAAACAAATTTTCCTAATCTTTCTGTTCAAGCGCCATCTAC | 1.88 |
| GATGATTGTTCTCCCAGCTGATGAATTACCTATGTCGAGTAAACAAATTTTCCTAATCTTTCTGTTCAAGCGCCATCTAC | 0.384 |
| GATGATTGTTCTCCCAGCTGATGAATTAAATCGGTCGAGTAAACAAATTTTCCTAATCTTTCTGTTCAAGCGCCATCTAC | 0.215 |
| GATGATTGTTCTCCCAGCTGATGAATTCTAAACGTCGAGTAAACAAATTTTCCTAATCTTTCTGTTCAAGCGCCATCTAC | 0.38 |
| GATGATTGTTCTCCCAGCTGATGAATTCCATTCGTCGAGTAAACAAATTTTCCTAATCTTTCTGTTCAAGCGCCATCTAC | 0.494 |

| Sequence | binding signal (RPM ratio (pull-down/input)) |
| --- | --- |
| GATGATTGTTCTCCCAGCTGATGAATTCTAGTATTCGAGTAAACAAATTTTCCTAATCTTTCTGTTCAAGCGCCATCTAC | 1.14 |
| GATGATTGTTCTCCCAGCTGATGAATTCAGACCCTCGAGTAAACAAATTTTCCTAATCTTTCTGTTCAAGCGCCATCTAC | 0.319 |
| GATGATTGTTCTCCCAGCTGATGAATTCTAATTATCGAGTAAACAAATTTTCCTAATCTTTCTGTTCAAGCGCCATCTAC | 1.8 |
| GATGATTGTTCTCCCAGCTGATGAATTAACATCGTCGAGTAAACAAATTTTCCTAATCTTTCTGTTCAAGCGCCATCTAC | 0.591 |
| GATGATTGTTCTCCCAGCTGATGAATTTAATACCTCGAGTAAACAAATTTTCCTAATCTTTCTGTTCAAGCGCCATCTAC | 0.637 |
| GATGATTGTTCTCCCAGCTGATGAATTGCTTGGTTCGAGTAAACAAATTTTCCTAATCTTTCTGTTCAAGCGCCATCTAC | 0.956 |
| GATGATTGTTCTCCCAGCTGATGAATTCGTAAGCTCGAGTAAACAAATTTTCCTAATCTTTCTGTTCAAGCGCCATCTAC | 0.435 |
| GATGATTGTTCTCCCAGCTGATGAATTAGATTCCTCGAGTAAACAAATTTTCCTAATCTTTCTGTTCAAGCGCCATCTAC | 0.8 |
| GATGATTGTTCTCCCAGCTGATGAATTTTCAAGATCGAGTAAACAAATTTTCCTAATCTTTCTGTTCAAGCGCCATCTAC | 0.17 |
| GATGATTGTTCTCCCAGCTGATGAATTCTCCACTTCGAGTAAACAAATTTTCCTAATCTTTCTGTTCAAGCGCCATCTAC | 0.248 |
| GATGATTGTTCTCCCAGCTGATGAATTCCACGATTCGAGTAAACAAATTTTCCTAATCTTTCTGTTCAAGCGCCATCTAC | 0.302 |
| GATGATTGTTCTCCCAGCTGATGAATTCTAAGGATCGAGTAAACAAATTTTCCTAATCTTTCTGTTCAAGCGCCATCTAC | 0.231 |
| GATGATTGTTCTCCCAGCTGATGAATTGCGTTTGTCGAGTAAACAAATTTTCCTAATCTTTCTGTTCAAGCGCCATCTAC | 3.57 |
| GATGATTGTTCTCCCAGCTGATGAATTGGGCGACTCGAGTAAACAAATTTTCCTAATCTTTCTGTTCAAGCGCCATCTAC | 1.21 |
| GATGATTGTTCTCCCAGCTGATGAATTTCGCGCATCGAGTAAACAAATTTTCCTAATCTTTCTGTTCAAGCGCCATCTAC | 1.42 |
| GATGATTGTTCTCCCAGCTGATGAATTCACGAGGTCGAGTAAACAAATTTTCCTAATCTTTCTGTTCAAGCGCCATCTAC | 0.211 |
